The whole screen tested about 420,000 compounds, of which about 64,000 (15%) were called active. This list was built around the results that the source calls inconclusive (neither active nor inactive); the mix of calls is not that of the screen. Calls follow the shape of the dose curve; as a rule, active = well fitted inhibition curve with a large enough effect; inconclusive = small, poorly fitted or top-dose-only effect; inactive = flat fitted curve, though single readings scatter. Potencies of inconclusive entries are left out as doubtful fits.
assay: qHTS for Inhibitors of human tyrosyl-DNA phosphodiesterase 1 (TDP1): qHTS in cells in absence of CPT; settings: DT40 Tdp1-/- hTDP1 cells, no CPT, ATP luminescence, 48 h; activity change, negative = growth inhibition: at 46.2 µM (top of the series); also: nearly all actives have a fitted effect of over 55% in size
How it was run: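 A cellular qHTS used chicken DT40 cells lacking endogenous Tdp1 but carrying stably transfected human TDP1. Compounds were applied without camptothecin, and cell growth kinetics were judged by ATP-dependent luminescence after ≥48 hr.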
% is scaled to controls: 0 for no effect and ±100 for the full control effect; potency is read from the fitted curve at half-maximal effect; tags tell the direction and shape of the fitted curve.

| SMILES | Potency | activity change, negative = growth inhibition |
| --- | --- | --- |
| CCc1ccc(OCC(=O)NNC(=O)Cc2c(F)cccc2Cl)cc1 | inactive | – |
| CCc1cccc(CC)c1NC(=O)CN(C)S(=O)(=O)c1ccc2c(c1)n(C)c(=O)c(=O)n2C | inactive | – |
| CSc1nn(Cc2ccc(F)cc2)c(N(C(C)=O)C(C)=O)c1S(=O)(=O)c1ccccc1 | inconclusive [inhibitor, single point] | – |
| COc1cc2nc(C3CCC3)n(NC(=O)c3ccco3)c(=O)c2cc1OC | inactive | – |
| Cc1nn(C)c(Sc2ccccc2N)c1[N+](=O)[O-] | inconclusive [inhibitor, single point] | – |
| Cc1nn2c(N3CCCC3)c3c(nc2c1-c1ccccc1)CCC3 | inconclusive [inhibitor, single point] | – |
| Cc1nc(NC(=O)c2ccc3c(c2)OCCO3)ccc1Br | – | inconclusive: -34.3% [inhibitor] |
| O=C(c1csnn1)N1CCC2(CC1)CN(c1ccccn1)C2 | inconclusive [inhibitor, single point] | – |
| Cc1ccc(Oc2ccccc2NC(=O)CSCC(=O)Nc2cc(C)on2)cc1 | active: 10.3 µM | – |
| CCC1(CC)NC(=O)N(CC(=O)OCC(=O)c2cc(C)c(C)cc2C)C1=O | inconclusive [inhibitor, single point] | – |
| Cc1cccc(Oc2ccc(NC(=O)C3=CC=CN4CCS(=O)(=O)N=C34)cc2)c1 | inactive | – |
| COc1cccc(OC)c1C(=O)Nc1ccccc1Sc1ccccc1 | inconclusive [inhibitor, single point] | – |
| CCn1c(SCc2cc(=O)n3ccsc3n2)nc2ccccc21 | inconclusive [inhibitor, partial curve] | – |
| COc1cccc(CNC(=O)C2CCCN(c3nnc(-n4c(C)ccc4C)s3)C2)c1OC (stereo not drawn) | inconclusive [inhibitor, single point] | – |
| CC(C)(C)c1cc(NC(=O)CCl)n(-c2ccccc2)n1 | active: 20.6 µM | – |
| Cc1ccccc1N=Nc1c(O)n(C)c2ccccc12 | active: 23.1 µM | – |
| Cc1ccc(S(=O)(=O)Nc2cc(S(=O)(=O)N3CCOCC3)ccc2NCC2CCCO2)cc1 (stereo not drawn) | inactive | – |
| Cc1ccc(C(=O)CSc2nc(C)cc(C)c2C(=O)Nc2cccc(C)c2)cc1 | inconclusive [inhibitor, single point] | – |
| CC(C)(C)C(=O)c1c(N)[nH]c(C(=O)c2ccccc2)c1-c1ccc(Br)cc1 | active: 23.1 µM | – |
| c1ccc(N2CCN(c3nnnn3-c3ccccc3)CC2)cc1 | inconclusive [inhibitor, partial curve] | – |
| CC(=O)Nc1c(C(=O)c2ccc(F)cc2)oc2ccccc12 | inconclusive [inhibitor, single point] | – |
| COc1ccccc1[C@@]1(C)ON(c2ccccc2C(F)(F)F)C1=O | inconclusive [inhibitor, single point] | – |

| SMILES | Potency | activity change, negative = growth inhibition |
| --- | --- | --- |
| Cc1ccc2nc(COc3ccccc3NC(=O)Nc3ccc(F)c(Cl)c3)cc(=O)n2c1 | active: 14.6 µM | – |
| COc1ccc(NC(=S)Nc2ccccc2SC)c(OC)c1 | inconclusive [inhibitor, single point] | – |
| CC(=O)N1CCCc2ccc(NC(=O)c3ccc(OC(C)C)cc3)cc21 | active: 16.4 µM | – |
| Cc1cccc(NC(=O)CSc2nc(C3CC3)nc3ccccc23)c1 | inconclusive [inhibitor, partial curve] | – |
| CN(C)C(=O)C1C2NC(=S)N(c3ccc(Cl)cc3)C1(C)Oc1ccc(Cl)cc12 (stereo not drawn) | inconclusive [inhibitor, single point] | – |
| Cc1nc2c3ccccc3nc(NNC(=O)CCC(=O)N3CCN(c4ccc(F)cc4)CC3)n2n1 | inconclusive [inhibitor, single point] | – |
| CCOc1ccc(CCNC(=O)CSCC(=O)Nc2ccc(OC)cc2)cc1OCC | inconclusive [inhibitor, partial curve] | – |
| CCCOc1ccc(N2C(=O)CC(SCCc3nc4ccccc4[nH]3)C2=O)cc1 (stereo not drawn) | inconclusive [inhibitor, single point] | – |
| Cc1ccc(NS(=O)(=O)c2cc(C(=O)NCCSC3CCCCC3)ccc2C)cc1 | inconclusive [inhibitor, single point] | – |
| COc1ccc(-c2cc(C(F)F)n3ncc(C(=O)NCC4CCCO4)c3n2)cc1 (stereo not drawn) | inconclusive [inhibitor, partial curve, poor fit] | – |
| CCC(Oc1ccccc1)C(=O)N(Cc1ccccc1)c1ccccn1 (stereo not drawn) | active: 16.4 µM | – |
| Cc1occc1C(=O)NC(C)C12CC3CC(CC(C3)C1)C2 (stereo not drawn) | inconclusive [inhibitor, single point] | – |
| CCC(=O)N1CCc2cc(Br)cc(S(=O)(=O)N3CCCC(C(=O)NCc4ccc(C)cc4)C3)c21 (stereo not drawn) | active: 16.4 µM | – |
| CCc1cccc(CC)c1N(COC)C(=O)Cn1c(CO)nc2ccccc21 | inconclusive [inhibitor, single point] | – |
| C=C(C)COc1ccc2c(c1)CCC1C2CCC2(C)C(=O)C(=NO)CC12 (stereo not drawn) | inconclusive [inhibitor, single point] | – |
| CC1(C)CC(NC(=S)NC(=O)c2cc(Br)ccc2Cl)CC(C)(C)N1 | inconclusive [inhibitor, single point] | – |
| COC(=O)[C@]12CCCCC=C1N(CCc1ccc(OC)c(OC)c1)C(=O)[C@H](CC(=O)NCC13CC4CC(CC(C4)C1)C3)C2 | inconclusive [inhibitor, single point] | – |
| Cc1noc(C)c1COC(=O)c1cccc(S(=O)(=O)N2CCOCC2)c1 | inconclusive [inhibitor, single point] | – |
| Cc1ccc(NC(=O)Cn2c3ccc(F)cc3c3nc4n(c(=O)c32)CCS4)cc1F | inconclusive [inhibitor, single point] | – |
| CCc1c(C)nc2c(Br)cccc2c1SCCC#N | inconclusive [inhibitor, single point] | – |
| COc1cccc(CNC(=O)CCC(=O)n2ncc3cc(C)ccc32)c1OC | inactive | – |
